Among all 110,000 compounds or so, about 230 (0.21%) showed an effect of 50% or more. This is one part of the list.
target: DPAP1 (Plasmodium falciparum, UniProt Q8IIJ9); assay: primary screen, percent inhibition; read by cleavage of a fluorogenic dipeptide substrate; higher = more effect of the substance; set-up: species or system P. falciparum D10 trophozoite lysates; single well
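Also: 30 min substrate incubation versus DMSO and 10 µM JCP410 controls.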

DPAP1, sequence (Q8IIJ9 whole entry, looked up): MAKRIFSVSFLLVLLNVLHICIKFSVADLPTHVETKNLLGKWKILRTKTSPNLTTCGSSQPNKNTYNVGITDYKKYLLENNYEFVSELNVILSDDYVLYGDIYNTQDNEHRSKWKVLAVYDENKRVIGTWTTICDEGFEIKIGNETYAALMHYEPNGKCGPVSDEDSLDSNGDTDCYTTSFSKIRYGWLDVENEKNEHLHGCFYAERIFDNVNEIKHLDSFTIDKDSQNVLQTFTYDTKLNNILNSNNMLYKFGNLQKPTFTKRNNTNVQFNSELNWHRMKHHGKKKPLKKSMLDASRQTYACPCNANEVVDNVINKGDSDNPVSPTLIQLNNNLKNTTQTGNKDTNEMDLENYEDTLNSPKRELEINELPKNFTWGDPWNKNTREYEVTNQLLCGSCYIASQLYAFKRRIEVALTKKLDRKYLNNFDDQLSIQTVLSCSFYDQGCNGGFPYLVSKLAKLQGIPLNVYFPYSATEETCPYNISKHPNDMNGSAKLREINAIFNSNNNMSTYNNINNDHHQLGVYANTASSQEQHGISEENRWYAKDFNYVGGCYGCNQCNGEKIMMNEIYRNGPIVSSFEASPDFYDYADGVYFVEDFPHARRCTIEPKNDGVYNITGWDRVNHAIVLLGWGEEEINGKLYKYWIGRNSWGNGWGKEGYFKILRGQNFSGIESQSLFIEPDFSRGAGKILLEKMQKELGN

Row | SMILES | % Inhibition @ 10 uM [%]
1 | CCN1CCN(C(=O)c2ccc(CS(=O)(=O)c3ccccc3C)o2)CC1 | -1.51
2 | CCOC(=O)c1c(C)[nH]c(C)c1S(=O)(=O)NC(C)c1ccc2c(c1)OCCO2 (stereo not drawn) | -3.45
3 | OC1=C2C(=Nc3nc(SCc4ccccc4)nn3C2c2cccnc2)CCC1 (stereo not drawn) | -0.363
4 | CNC(=O)C(=O)Nc1c(C)cccc1C | -3.57
5 | COc1ccc(/C=C2\C(=O)ON=C2c2ccccc2)cc1COCC(F)(F)F | -2.9
6 | Cc1onc(-c2ccccc2Cl)c1-c1nc(-c2ccccc2)no1 | 4.91
7 | OCc1cc2ccccc2nc1O | -4.91
8 | O=S(=O)(c1ccc(Cl)s1)N1CCN(c2nc3ccccc3nc2-c2ccccc2)CC1 | 2.77
9 | COc1cccc(-c2nc(CS(=O)(=O)CC(=O)NC3CCCCC3C)c(C)o2)c1 (stereo not drawn) | -5.58
10 | Cc1ccc2nc(NC(=O)C3CCCN(S(=O)(=O)c4ccc5nc(O)oc5c4)C3)sc2c1 (stereo not drawn) | -6.38
11 | CCCCCCCCCn1nc(C)cc1C | -0.0372
12 | Cc1cccn2c(=O)c3cc(C(=O)NCc4ccccc4)c(=N)n(CC4CCCO4)c3nc12 (stereo not drawn) | 5.17
13 | Cc1ccc(OCC(=O)N2CCN(C(=O)COc3ccc(C)cc3)CC2)cc1 | -4.68
14 | c1ccc2[nH]c(CCSCCc3nc4ccccc4[nH]3)nc2c1 | 1.21
15 | CC[C@H](NC(=O)[C@H](CS(=O)(=O)Cc1ccccc1)NC(=O)N1CCOCC1)C(=O)c1nc2ccccc2[nH]1 | -6.98
16 | COc1ccc(C2C(C(=O)c3ccccc3)=C(O)C(=O)N2CCCN(C)C)c(OC)c1 (stereo not drawn) | -1.25
17 | CC(C)CC(=O)N1c2ccccc2N=C2CC(C)(C)CC(O)=C2C1c1ccc2c(c1)OCO2 (stereo not drawn) | -2.77
18 | CCc1nc2nc(C)cc(O)n2n1 | -0.414
19 | CC1CCN(C(=O)c2ccc3c(c2)sc2nc(-c4ccc(F)cc4)cn23)CC1 | 25.2
20 | CCCn1c(=O)c2sccc2n2c(CCCC(=O)N3CCC(C(N)=O)CC3)nnc12 | -5.35
21 | COC(=O)CCCC(NC(=O)OCc1ccccc1)C(=O)NCC#N (stereo not drawn) | -0.214
22 | CCCCCCCCOc1ccc(/C=C(\C#N)c2nc(-c3ccc(Br)cc3)cs2)cc1 | 2.54
23 | Cc1nc2sc(C(c3ccc(C(C)C)cc3)N3CCN(C)CC3)c(O)n2n1 (stereo not drawn) | -6.62
24 | CCOC(=O)N1CCN(C(=O)C2c3cc(OC)c(OC)cc3C(=O)N(C)C2c2cccs2)CC1 (stereo not drawn) | -0.503
25 | CCSC1=NSC2=NC(=O)/C(=C\c3ccc(Cl)cc3)C(=N)N12 | -3.79

Row | SMILES | % Inhibition @ 10 uM [%]
26 | CC(NC(=O)CCCn1c2ccccc2c2cnnc(O)c21)c1ccccc1 (stereo not drawn) | 4.55
27 | CC(C)(C)c1ccc(C(=O)Nc2cccnc2Cl)cc1 | -0.318
28 | CCC(C)(C)NS(=O)(=O)c1cccs1 | 2.01
29 | Cc1nnc(NC(=O)CSc2nnc(Cc3cccn3C)n2CCc2ccccc2)s1 | -7.65
30 | CCNc1nc(C)cc(OC(F)F)n1 | -4.75
31 | CC(C)c1ccc(/C=C2\N=C(c3ccccc3F)OC2=O)cc1 | 4.54
32 | Cc1cccc(OCCCCCN2CCOCC2)c1C | 1.13
33 | CS(=O)(=O)CCC(C(=O)O)N1C(=O)c2ccc(Oc3ccc(Cl)cc3)cc2C1=O (stereo not drawn) | 6.3
34 | COc1ccc(C(O)(c2ccccc2)c2ccccc2)cc1 | 2.45
35 | COc1ccc(N(C)C(=O)c2cc(F)c(Cl)nc2Cl)cc1 | 0.907
36 | COc1ccc(Cn2c(C(=O)O)c(CNCc3cc(OC)ccc3OC)c3ccc(OC)cc32)cc1 | 1.53
37 | c1ccc(Cc2nc(-c3cccnc3)no2)cc1 | -4.14
38 | CCOC(=O)c1c(C)nc(C)c(C(=O)OCC)c1-c1ccc(Cl)cc1 | -2.91
39 | CC1CCN(C(=O)Cc2noc3ccccc23)CC1 | 9.85
40 | CC1(C)CC(=O)C(C(C2=C(O)CC(C)(C)CC2=O)c2ccccc2[N+](=O)[O-])C(=O)C1 (stereo not drawn) | -5.38
41 | Cc1ccc(-n2nnnc2Cc2ccccc2F)cc1Cl | 5.45
42 | Cc1ccc2c(Cl)c(C(=O)Nc3ccc(C(N)=O)cc3)sc2c1 | -4.65
43 | Cc1ccc(NC(=O)C2CCCN(c3ncnc4onc(C)c34)C2)nc1 (stereo not drawn) | 4.03
44 | CCCN1CCC(NCC(c2ccccc2)c2ccccc2)CC1 | -3.35
45 | CC1CN(Cc2ccc([N+](=O)[O-])cc2)CC(C)O1 (stereo not drawn) | -0.636
46 | COc1ccc2cc(C(=O)NCC(=O)O)sc(=O)c2c1OC | -5.4
47 | C1CCN(CC2COC3(CCCCC3)O2)CC1 (stereo not drawn) | -3.65
48 | Cc1nc(-c2ccc(C(=O)Nc3ccc(C)c(Cl)c3)cc2)cs1 | 0.361
49 | N#CC1=C(N)Oc2[nH]nc(-c3cccc4ccccc34)c2C1c1ccc(OCC(N)=O)cc1 (stereo not drawn) | -0.994
50 | CCOC(=O)c1c(C)[nH]c(C)c1S(=O)(=O)NCC(=O)N1CCC(c2ccccc2)C1 (stereo not drawn) | 3.62

Row | SMILES | % Inhibition @ 10 uM [%]
51 | COc1ccc(/C=C/c2cc(C(F)(F)F)nc(O)n2)c(OC)c1 | 1.29
52 | Cc1ccc(C(=O)C2=C(O)C(=O)N(CCN3CCOCC3)C2c2cccs2)cc1 (stereo not drawn) | 1.64
53 | COc1ccc(N2C(=O)CCC2(C#N)c2ccc(Br)cc2)cc1 (stereo not drawn) | -1.59
54 | COc1cc(C2C(C#N)=C(N)Oc3c(O)nc(O)nc32)cc(OC)c1OC (stereo not drawn) | -1.29
55 | CCC(c1ccccc1)c1nc(-c2ccc(OC)cc2)no1 (stereo not drawn) | -2.92
56 | CN1CCN(CC(O)COCc2ccccc2)CC1 (stereo not drawn) | 1.24
57 | O=C(CNS(=O)(=O)c1ccccc1)Nc1ccc(Br)cc1F | -5.51
58 | CCC(Sc1nc2nnc(C)c-2c(N)n1-c1ccc(C)c(Cl)c1)C(=O)NCc1ccco1 (stereo not drawn) | -2.17
59 | O=C(Nc1cccnc1)c1cnn2c(C(F)(F)F)cc(-c3cccs3)nc12 | -3.65
60 | CCOC(=O)c1c(NC(=O)CSc2nnc(-c3ccncc3)n2CC)sc2c1CCCC2 | 3.75
61 | O=c1cc(-c2cc(Br)cc3c2OCOC3)oc2ccccc12 | 3.93
62 | CCOc1ccc2nc(N3CCC(C(=O)NCCc4c[nH]c5ccccc45)CC3)sc2c1 | 1.8
63 | CCn1cc(/C=C(\NC(=O)c2ccccc2F)C(=O)NC(C)C)c2ccccc21 | 1.64
64 | NC1=NC(=O)/C(=C/c2ccc(OCC(=O)O)cc2)S1 | -0.467
65 | Cc1ccc(/C=C/c2cc(=O)n3ccsc3n2)cc1 | -0.0709
66 | COc1ccccc1C(=O)Nc1nc2c(Cl)cccc2s1 | -1.28
67 | O=C(Nc1ccc(S(=O)(=O)Nc2nccs2)cc1)C(c1ccccc1)c1ccccc1 | -3.95
68 | CC12C=CC(O1)C1C(=O)N(c3ccc(F)cc3)C(=O)C12 (stereo not drawn) | 0.545
69 | Cc1cccc(C(=O)Nc2sc(C)c(C)c2C(=O)O)c1 | 0.35
70 | CCn1cc(C(=O)Nc2ccc(S(=O)(=O)NC34CC5CC(CC(C5)C3)C4)cc2)cn1 | 25.6
71 | O=C(CSCc1cnn(-c2ccccc2)c1-n1cccc1)NCc1ccccn1 | -1.08
72 | CC(=O)Nc1ccc(-c2cc(NC(C)=O)n(C)n2)cc1 | -6.21
73 | Cc1nc2nc(O)cc(N)n2n1 | 2.31
74 | OCC1CCCN(CCCc2ccccc2)C1 (stereo not drawn) | 5.03
75 | COc1ccc(C2NCCC3(O)CCCCC23)c(C)c1C (stereo not drawn) | -1.85

Row | SMILES | % Inhibition @ 10 uM [%]
76 | CCCNCCOC(c1ccccc1)c1ccc(C)cc1 (stereo not drawn) | 0.343
77 | COc1cc(C2c3c(oc4ccc(C)cc4c3=O)C(=O)N2c2nc(C)c(C)s2)ccc1O (stereo not drawn) | -1.33
78 | CCOc1cc(C2C(C#N)=C(N)Oc3[nH]nc(-c4cc(C)sc4C)c32)cc(Br)c1O (stereo not drawn) | -0.99
79 | COc1ccc2[nH]c3c(=O)n(Cc4ccc(C(=O)NCc5ccco5)cc4)c(=S)[nH]c3c2c1 | -5.76
80 | O=C(O)CC1NCCNC1=O (stereo not drawn) | -1.33
81 | Cn1cc(S(=O)(=O)N2CCCC2)cc1C(=O)NC1CCN(Cc2ccccc2)CC1 | -4.37
82 | CCCC(=O)N1CCN(c2ccc(NC(=O)c3c(OC)cccc3OC)cc2Cl)CC1 | 0.245
83 | COc1ccccc1CC(C)NCCN(C)C (stereo not drawn) | 0.217
84 | CC(C)c1ccc(NC(=O)CN(Cc2ccccc2)S(C)(=O)=O)cc1 | -1.52
85 | CS(=O)(=O)C1=NSC2=NC(=O)/C(=C\c3ccc(Sc4ccc(Cl)cc4)o3)C(=N)N21 | -1.58
86 | CCSCCNC(=O)c1cncc(Br)c1 | 4.19
87 | CC(C)Cc1ccc(C(=O)NCC2OCCc3ccccc32)cc1 (stereo not drawn) | 11.5
88 | CC(C)C(=O)Nc1c(C(=O)c2ccc(Br)cc2)oc2ccccc12 | -2.91
89 | O=C(NCCc1c[nH]c2ccccc12)c1csc2c1CCCCC2 | 0.277
90 | Cc1ccc(S(=O)(=O)N2Cc3ccccc3CC2C(=O)NC(C)(C)C)cc1 (stereo not drawn) | 0.214
91 | CO[C@H]1O[C@H](COC(c2ccccc2)(c2ccccc2)c2ccccc2)[C@@H](O)[C@H](O)[C@H]1O | 4.18
92 | O=C(O)c1cc(-c2ccc(F)cc2)on1 | 0.596
93 | Cc1ccc(-c2nnc(-c3ccccc3Cl)o2)s1 | -0.833
94 | COc1ccc(Cl)cc1C(=O)Nc1nc2c(s1)Cc1c(Br)ccc(OC)c1-2 | 1.12
95 | O=C(CCCn1c2ccccc2c2cnnc(O)c21)NCCCN1CCOCC1 | 4.55
96 | COc1ccccc1NC(=O)c1ccc(Cn2cc(Cl)cn2)cc1 | -4.67
97 | CCCc1ccc(OCc2nc(-c3nonc3N)no2)cc1 | 0.746
98 | O=C1c2oc3ccccc3c(=O)c2C(c2ccc(F)cc2)N1Cc1ccc2c(c1)OCO2 (stereo not drawn) | -1.33
99 | Cc1cc(C)n(CC(=O)O)n1 | -2.96
